Among all 350,000 compounds or so, about 9,900 (2.8%) were called active. Inconclusive means that the source gave no clear call. Such entries were picked first, then a sample of the others. Calls follow the shape of the dose curve; as a rule, active = well fitted activation curve with a large enough effect; inconclusive = small, poorly fitted or top-dose-only effect; inactive = no such curve, though single readings can be large or run the other way. Potencies of inconclusive entries are left out as doubtful fits.
experiment: A quantitative high throughput screen for small molecules that induce DNA re-replication in MCF 10a normal breast cells.; also: nearly all actives have a fitted effect of over 50% in size; as to activity, positive = re-replication: % of control where 0% means no effect; conditions: MCF 10A DNA re-replication, Hoechst nuclear intensity, 48 h; activity, positive = re-replication: at 46.1 µM (top of the series)
Potency is read from the fitted curve at half-maximal effect; tags tell the direction and shape of the fitted curve.

SMILES | activity, positive = re-replication | Potency
NCC(=O)NNC(=O)OCC1c2ccccc2-c2ccccc21 | inactive: -3.17% | –
Fc1ccc(CCNC(=S)Nc2ccc(F)cc2)cc1 | inactive: 14.9% | –
COc1ccccc1N1CCN(C(=O)c2ccc(Cl)c(S(=O)(=O)N3CCOCC3)c2)CC1 | inactive: 1.7% | –
CCOC(=O)CSc1nnc(Cn2nnc(-c3ccccc3)n2)n1C | – | inconclusive [activator, partial curve, poor fit]
O=C(Nc1cc(-c2nc3ncccc3o2)ccc1Cl)c1cccs1 | – | inconclusive [activator, single point]
CN(C)/C=C/C(=O)c1cccc(C(F)(F)F)c1 | – | inconclusive [activator, partial curve, poor fit]
CCOc1ncccc1C(=O)OCC(=O)NC(=O)c1ccccc1 | inactive: -7.62% | –
Clc1ccccc1C(c1nnnn1Cc1ccco1)N1CCN(Cc2ccco2)CC1 (centres undefined) | inactive: 2.45% | –
Cc1ccc(OC(C)C(=O)Nc2ccc(C)c(S(=O)(=O)Nc3ccc(C)cc3C)c2)cc1 (centres undefined) | – | inconclusive [activator, partial curve, poor fit]
CCOc1ccc(Nc2c3ccccc3nc3ccccc23)cc1 | – | active: 3.26 µM
COc1cc(NS(=O)(=O)c2ccc(NC(=S)NC(=O)C(C)(C)C)cc2)nc(OC)n1 | inactive: -20.3% | –
Cc1cc(C)c(Cc2c(C)nc3c(C(=O)NCc4ccco4)cnn3c2C)c(C)c1 | – | inconclusive [activator, single point]
O=C(NNC(=S)Nc1ccc(F)c(Cl)c1)c1ccccc1Br | – | inconclusive [activator, partial curve, poor fit]
Cc1ccc(CN2CCN(/N=C/c3cc(Br)cc(Br)c3O)CC2)cc1 | – | inconclusive [activator, single point]
S=c1[nH]nc(-c2ccccc2Cl)n1Cc1ccccc1 | inactive: 12.1% | –
CCOC(=O)C1CCCN(C(=O)Cc2c(F)cccc2Cl)C1 (centres undefined) | – | inconclusive [activator, partial curve, poor fit]
O=C(CCn1ccc2cc(S(=O)(=O)N3CCCC3)ccc21)NCc1ccccc1 | inactive: -0.512% | –

SMILES | activity, positive = re-replication | Potency
CC(=C\c1ccccc1)/C=C1/SC(=O)N(CCCC(=O)Nc2ccc(C(=O)O)cc2)C1=O | – | inconclusive [activator, single point]
COc1ccc(CCNC(=O)c2ccc(Cl)c(S(=O)(=O)N3CCCC3)c2)cc1 | inactive: 4.69% | –
CN1CCN(c2oc(COc3ccc(-c4ccccc4)cc3)nc2C#N)CC1 | – | inconclusive [activator, single point]
CCC(C)Nc1nc(-c2cccc(OC)c2O)nc2ccccc12 (centres undefined) | – | inconclusive [activator, single point]
CCOc1cc(/C=N/Nc2nnc(C)n2N)ccc1O | – | inconclusive [activator, single point]
Cc1nc(Nc2nc3ccccc3o2)nc2c1CCC2 | inactive: -125% [at 0.0737 µM] | –
CC(C)n1ncc2c(C(=O)N3CCN(c4ccccc4)CC3)cc(-c3ccccc3)nc21 | – | inconclusive [activator, single point]
Cc1ccc(S(=O)(=O)NC(=NC2CCCCC2)c2ccc(Cl)cc2)cc1 | inactive: 2.9% | –
Cc1ccc(C(=O)N(C)CC(=O)Nc2ccc(Cl)c(C(F)(F)F)c2)cc1S(=O)(=O)N1CCCCC1 | – | active: 20.6 µM
COC(=O)c1ccccc1SC1CC(=O)N(c2ccccc2)C1=O (centres undefined) | inactive: -4.57% | –
O=C1CC(N2CCN(c3ccccn3)CC2)C(=O)N1CC(c1ccccc1)c1ccccc1 (centres undefined) | – | inconclusive [activator, partial curve, poor fit]
Cc1nnc(SCC(=O)Nc2ncc3c(n2)CC(c2ccccc2)CC3=O)s1 (centres undefined) | inactive: 1.87% | –
O=C(/C=C/c1ccc2c(c1)OCCCO2)c1ccccc1O | – | inconclusive [activator, single point]
CCCCCC#CCC#CCC#CCC#CCCCC(=O)O | – | inconclusive [activator, single point]
CCOc1ncccc1C(=O)OCC(=O)N(CC(C)C)c1c(N)n(Cc2ccccc2)c(=O)[nH]c1=O | – | inconclusive [activator, partial curve]
COc1cc(S(=O)(=O)N2CC(=O)Nc3ccccc32)ccc1NC(C)=O | inactive: -3.4% | –
CN(C)c1ccc(C=Nc2ccccc2C(N)=O)cc1 | – | inconclusive [activator, single point]
